Test results: PubChem BioAssay AID651820 (National Center for Advancing Translational Sciences (NCATS), 2012)
The campaign covered roughly 340,000 compounds. About 12,000 (3.5%) were called active. Inconclusive results, whose numbers are uncertain, are shown with a selection of clear calls. Calls follow the shape of the dose curve; as a rule, active = well fitted inhibition curve with a large enough effect; inconclusive = small, poorly fitted or top-dose-only effect, or another doubt; inactive = no such curve, though single readings can be large or run the other way. Potencies of inconclusive entries are left out as doubtful fits.

Assay: qHTS Assay for Inhibitors of Hepatitis C Virus (HCV)
Conditions: Huh7.5.1 HCVcc-Cre (HCVcc is cell-culture hepatitis C virus) infection, luciferase reporter, 44 h; series mostly up to 41.8 µM
How it was run: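 HCVcc-Cre virus at an moi near 0.5 was added right after compound to cells cultured 4 h from seeding (1,000 cells/well). Luciferase activity was determined 44 h later, 15 min after substrate addition at RT.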
Potency is read from the fitted curve at half-maximal effect; tags tell the direction and shape of the fitted curve.

Compound | Potency
COc1cccc(OC)c1OCCOc1ccc(C(=O)c2ccccc2)cc1 | inconclusive [inhibitor, partial curve]
Cc1ccccc1NC(=O)C(=Cc1ccc(C(=O)O)cc1)C(=O)Nc1ccccc1C | inconclusive [inhibitor, single point]
CCCOc1ccc(C2=CSC3=NCCN23)cc1[N+](=O)[O-] | inconclusive [inhibitor, partial curve]
Oc1ccc2ccccc2c1/C=C/c1ccc2c(Br)cc(Br)c(O)c2n1 | inconclusive [inhibitor, full curve]
CCc1ccc(CN(C)Cc2nc(COc3ccccc3)no2)nc1 | inconclusive [inhibitor, single point]
COC(=O)c1cc(NC(=O)CN2CCc3cc4c(cc3C2)OCCCO4)cc(C(=O)OC)c1 | inconclusive [inhibitor, partial curve]
Cc1cc(C)cc(NC(=O)c2cnn(-c3ccccc3)c2C2CCNCC2)c1 | inactive
COCc1[nH]nc2c1C1(CCSCC1)C(C#N)=C(N)O2 | inconclusive [inhibitor, single point]
CCN(CC)C(=O)c1ccc2c(c1)C1C=CCC1C(C(=O)O)N2 (stereo unspecified) | inactive
CC(C)(C)C(=O)Nc1nnc(SCc2ccc(F)cc2)s1 | inactive
O=C(COc1ccc(Cl)cc1Cl)Nc1ccccn1 | inconclusive [inhibitor, single point]
COc1ccc(C2/C=C\CN(C(=O)OCC3c4ccccc4-c4ccccc43)CC(=O)N2Cc2cccc(F)c2)cc1 (stereo unspecified) | active: 10 µM
COc1ccc([C@H]2CC(=O)C=C(c3ccccc3)C2)cc1 | inconclusive [inhibitor, single point]
CCc1ccc(NC(=O)COc2coc(CN3CCN(c4ccccc4)CC3)cc2=O)cc1 | inconclusive [inhibitor, full curve, poor fit]
CCOC(=O)CC1(NC(=O)c2cc(COc3cccc(OC)c3)on2)CCCCC1 | active: 10 µM
COc1ccc(CN2CCN(Cc3ccc4cc(F)ccc4n3)CC2CCO)c(C)c1C (stereo unspecified) | inconclusive [inhibitor, single point]
CC1CCc2c(sc3nc(CN4CCOCC4)nc(N4CCc5ccccc5C4)c23)C1 (stereo unspecified) | inconclusive [inhibitor, single point]
COc1cnc(NS(=O)(=O)c2ccc(N)cc2)nc1 | inactive
CN(CC(=O)NCCc1ccc(S(N)(=O)=O)cc1)Cc1ccc(Cl)cc1Cl | active: 7.08 µM
CC(C)=CCC/C(C)=C/COc1c2occc2cc2ccc(=O)oc12 | inactive
Fc1cccc(Nc2cc(-n3cccn3)ncn2)c1 | inconclusive [inhibitor, partial curve]
CC1CC(C)CN(C(=O)c2ccc(CSc3nc4ccncc4[nH]3)cc2)C1 (stereo unspecified) | inconclusive [inhibitor, single point]
OCCNCc1cc(Br)ccc1OCc1ccc(Cl)cc1Cl | active: 11.2 µM

Compound | Potency
CCOc1ccc(-c2cc(C(=O)O)c3ccccc3n2)c(OCC)c1 | inconclusive [inhibitor, partial curve, poor fit]
O=C(NCCCCCCCN1CCCCCCC1)C(C1CCCCC1)C1CCCCC1 | inconclusive [inhibitor, partial curve, poor fit]
COc1cc(/C=C/C(=O)OCC(=O)Nc2oc(C)c3c(C)n[nH]c(=O)c23)ccc1OC(F)F | inconclusive [inhibitor, single point]
Cc1c(C)n(C)c2ccc(C(=O)NCCc3ccco3)cc12 | inconclusive [inhibitor, partial curve]
Cn1c(Cl)nc2ccccc21 | inactive
O=C(CN1C(=O)NC(c2ccccc2)(c2ccccc2)C1=O)N1CCN(c2ccccc2F)CC1 | inconclusive [inhibitor, single point]
O=C(CC1C(=O)NCCN1Cc1cccc(F)c1)NCCCN1CCCC1=O (stereo unspecified) | inactive
COc1cccc(NC(=O)CN(C)C(=O)c2cc3ccccc3cc2OC)c1 | inconclusive [inhibitor, partial curve]
Cc1cccc(CN2CCN(C(c3ccccc3)c3ccc(Cl)cc3)CC2)c1 (stereo unspecified) | inconclusive [inhibitor, partial curve]
CC1CCN(C(=O)COC(=O)c2cc3ccccc3oc2=O)CC1 | inconclusive [inhibitor, single point]
Cc1cccc(COc2ccccc2C(=O)N(C)CC(=O)Nc2cccc(F)c2)c1 | inconclusive [inhibitor, single point]
CCCCCCCC(=O)Oc1ccc(C(=O)Nc2cc(C)on2)cc1 | inactive
Cc1ccc(N/C(CSC(N)=O)=N/S(=O)(=O)c2ccccc2)cc1 | inactive
CCC(C(=O)NC1CCCCC1)n1c(SCc2cccc(F)c2)nc2ccncc21 (stereo unspecified) | inconclusive [inhibitor, single point]
N#Cc1nc(-c2ccccc2F)oc1NCc1ccccc1 | inactive
CCOc1ccc(/C=N/N(C)c2ccccc2)cc1OC | inconclusive [inhibitor, single point]
COc1ccccc1C(=O)COC(=O)CNS(=O)(=O)c1ccc(C)c(C)c1 | inactive
COc1ccc(N2C(=O)c3cc4ccccc4cc3C2=O)cc1 | inactive
CS(=O)(=O)N1CCc2cc(C(=O)Nc3ccc(Br)cc3)ccc21 | inconclusive [inhibitor, single point]
CC1=C(C)CC2(SC1)C(=O)N(c1ccccc1)N=C2N (stereo unspecified) | inactive
O=C(COC(=O)c1cccs1)Nc1ccccc1[N+](=O)[O-] | inconclusive [inhibitor, single point]
O=C(NNc1c2ccccc2nc2ccccc12)c1cccc(O)c1 | inconclusive [inhibitor, partial curve]
Cc1cc(C)cc(OCC(=O)Nc2cccc(-c3nnc(-c4ccco4)o3)c2)c1 | inactive
